Source: PMC12136788
This is one part of the list.

T1: UNK ZnF1-3 (human, UniProt Q9C0B0 31-174)
T1 sequence: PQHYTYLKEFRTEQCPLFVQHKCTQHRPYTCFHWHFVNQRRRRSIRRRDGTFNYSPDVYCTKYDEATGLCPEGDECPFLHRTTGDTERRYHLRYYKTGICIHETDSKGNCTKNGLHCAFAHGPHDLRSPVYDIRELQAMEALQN

B1: chr18:52893488:52893489:-_ENSG00000196628_ENST00000354452|hu_mus|FALSE|FALSE (ssRNA)
RNA: GGGAGUUCUACAGUCCGACGAUCUAUUUAGACCAUUUCCGCGGAGUUAUGGCAUUUACUCAGUGCUGAUAGGUGGAAAAACUACUUCAACAGGGAUUUUUUUUUUCCUUAAUACAUGCCAAGAUUGUGUGGCUGUCAAAACAGCAACAGAGGAUUGAGCAUCA
B2: chr11:50193004:50193005:+_ENSMUSG00000007850_ENSMUST00000069304|mus_mus|FALSE|FALSE (ssRNA)
RNA: GGGAGUUCUACAGUCCGACGAUCUGAUUCAAGUUCAACAAAAGCCUCGCCACUUGGUCUGCCUUCUCUGGUGUAGAUGAAACGAAUACCUUGAGCCCCAUUUUGAAUUUUGCAGUCAGAAAAAAAGCGCUGCACUUCAUCCGCCAACAGAGGAUUGAGCAUCA
B3: 23909521_23909641_9022_CDS_ENSG00000151835_ENST00000382298|human|control|control (ssRNA)
RNA: GGGAGUUCUACAGUCCGACGAUCUUUCUCCAUACUUGAAAAGCCUGAUCUAUUACAAAUUAGCCACGUAGUAAGAUUUCCUUCAGAGUCCUCAGUAUCCAUAGUAUAGGUUAUUUGUUGAACUGGUAUGUCUUUGAGCUGCCUCAACAGAGGAUUGAGCAUCA
B4: chr17:21088332:21088333:+_ENSMUSG00000007564_ENSMUST00000007708|mus_mus|FALSE|FALSE (ssRNA)
RNA: GGGAGUUCUACAGUCCGACGAUCCUCACUUCUGGUCCGUUCAACCCCAAGGGCCAAGGCAAUUGUGGAGAGCUUCUUGAUACUAUUGAGACGAAGCUGAACGUCCUCAUUGCGGAGUUCAUCUAUGAGCACCGCAAUAGGAUACAACAGAGGAUUGAGCAUCA
B5: chr17:65930154:65930155:-_ENSMUSG00000024091_ENSMUST00000024897|mus_hu|FALSE|FALSE (ssRNA)
RNA: GGGAGUUCUACAGUCCGACGAUCGGUGACAUUAUCUCUGAAGGAUGCAGUUGAGGUUGAUCCAGGUUUAUCCGAAUGUGCUACCUUUCUGAGCCUUAAACCUUCAUCUCUCAGGUGCCGAUUUUCUUCUGAUAGCUUCAUCAUCAACAGAGGAUUGAGCAUCA
B6: chr1:163112212:163112213:-_ENSG00000143248_ENST00000313961|hu_hu|hu_hu_hu_mus_False|98_108 (ssRNA)
RNA: GGGAGUUCUACAGUCCGACGAUCUUUAUUUAUCCAGAAGCAUGAGUUACAUACUAGGCAAAGUAUUGGAUACAAUAAUCAGGAAACAAACACUAUUGGUCCAGAAUUUAAAACUUUAUGAGCGAAGUGCUGGCACAGGACUUACAACAGAGGAUUGAGCAUCA
B7: chr2:42797587:42797588:+_ENSG00000057935_ENST00000405094|hu_hu|FALSE|FALSE (ssRNA)
RNA: GGGAGUUCUACAGUCCGACGAUCAUAAAAGCAUACUACUUUUGCUUCCACGUUGCCACUUGCAGUCUUGUUGAGUUCUUCUAUCCUUCUUAUUAGGUAUGGGUUGCUGGAGGAAUUCUCAAAGUAGACAUAAUCUCCGACCCGCAACAGAGGAUUGAGCAUCA
B8: 136535675_136535795_2550_CDS_ENSMUSG00000030213_ENSMUST00000032335|mouse|control|control (ssRNA)
RNA: GGGAGUUCUACAGUCCGACGAUCCUGAGGCUGAGAGGUCACGGCAACGGGCACAUGCAGGAUCACUGGCAAGGGCUGCAGAGAGAUUGUAGGCUGAGGGGUCCCACUAGGCACCUGAGUAGUGGCAACUACGGUGGCUGUGCUCAACAGAGGAUUGAGCAUCA
B9: chr12:103220134:103220135:+_ENSMUSG00000041781_ENSMUST00000047357|mus_mus|motif|central (ssRNA)
RNA: GGGAGUUCUACAGUCCGACGAUCAGAGAGGGUGGUUAACUUGAUGAUAGAUGUCAUCUUUCUGGUCCAGUAAUGGGUAGCGGAAAGGGCCUGCCAGGCCAAUCUCCCCCCGGCACCGUCCGCCGCCCUUCCCAACCCCUAGUGCAACAGAGGAUUGAGCAUCA
B10: chr11:106643243:106643244:-_ENSMUSG00000020719_ENSMUST00000021062|mus_hu|motif|central (ssRNA)
RNA: GGGAGUUCUACAGUCCGACGAUCGCCUGUUGGUUCAUACCAUUGUGCAUAUUUGGAACAUUACUUCCGUAUUGCUGAGUGCGGUCAUAACCAUUCUGGUAAGUCCCUGUUGGAUUACCAGUCCUAAAACUGGUCUGUAUACCACAACAGAGGAUUGAGCAUCA
B11: chr12:39756943:39756944:-_ENSG00000139116_ENST00000544797|hu_mus|hu_hu_hu_mus_False|28_28 (ssRNA)
RNA: GGGAGUUCUACAGUCCGACGAUCGGUUUGGCUGUUACCCCCAAGGGAAUCCUGCAAGAGUCUUGUCAGCUUAGAGUCUCUGUAAGGGACAUGGGUGGCUCUCUUGCUCUUGUCUCCCAAGGCGCUGAUUACAUUCCCAAGAGCCAACAGAGGAUUGAGCAUCA
B12: chr11:79252212:79252213:+_ENSMUSG00000020716_ENSMUST00000071325|mus_mus|FALSE|FALSE (ssRNA)
RNA: GGGAGUUCUACAGUCCGACGAUCAGUAGCAGACAUUUCACAUCCUACUCCAUAAAGGUAGAGAGAAUGACAGGAGCUUCUAUCUGCCUGCUUAUUUUUAAGAAGAAAUUUAUUUCUGCAGAUCAGAAUUUCCCGUAACCACUUCAACAGAGGAUUGAGCAUCA
B13: chr15:76911759:76911760:-_ENSMUSG00000033565_ENSMUST00000166610|mus_hu|FALSE|FALSE (ssRNA)
RNA: GGGAGUUCUACAGUCCGACGAUCGAGGGACAUGGAGAUAAAGGUGUUCACUAGAGGCCUCCUUUAAGGAGCCCAGCUUCCAAGAGUACAGAAAGUCCAGGUCAUGAACUAUAGUAAAGCUGAAAAAGAAUCAUGCAUGUACUGCAACAGAGGAUUGAGCAUCA
B14: 135277904_135279378_1880_CDS_ENSG00000155561_ENST00000285968|human|control|control (ssRNA)
RNA: GGGAGUUCUACAGUCCGACGAUCAAUACUGCAUUGGAGGAGUCCCAGAAUCACCACAACAGGGGUCCACUGAGGGUGUUCACAGAGUGCCAAGCGAGCAUUUUCACUCCAAGUAAUGAUGGUAGACGUGAGCUGCAAAAAAGCCAACAGAGGAUUGAGCAUCA
B15: chr19:39321778:39321779:-_ENSG00000104823_ENST00000221418|hu_mus|FALSE|FALSE (ssRNA)
RNA: GGGAGUUCUACAGUCCGACGAUCAGUGAACAUCUUUCCUGCACCGGAGACUACAACAGCCCGGCAGUCCGAGUCUUUGGAUAUCUUUUGGAAGCAUUCCACCAACUCCCUCCAGAAAGCCCUGUUCAUGGCAUUCCUCUUCUCCAACAGAGGAUUGAGCAUCA
B16: chr12:16048344:16048345:+_ENSG00000023734_ENST00000419869|hu_hu|hu_hu_hu_mus_True|1_18 (ssRNA)
RNA: GGGAGUUCUACAGUCCGACGAUCAGAUCGUCCAUAAGUAAUAACCAAAAUCUCUCCUUCAGGAAUAUACUCCAUGCUGCUAACAGACAUAUUAAAAUUCAGAGAUUUCACUUCUGUCAUAGUAGCAUGAUCCCAGAGUCGAACCAACAGAGGAUUGAGCAUCA
B17: chr7:6441565:6441566:+_ENSG00000136238_ENST00000348035|hu_hu|motif|central (ssRNA)
RNA: GGGAGUUCUACAGUCCGACGAUCGGUGAUGGGAGUCAGCUUCUUCUCCUUCAGUUUCUCGAUCGUGUCUUUAUCAUCCCGGAGAUCAAGUUUAGUUCCCACUAGGAUGAUGGGAGUGUUGGGACAGUGGUGCCGCACCUCAGGCAACAGAGGAUUGAGCAUCA
B18: 75614384_75618798_385_CDS_ENSG00000170348_ENST00000303575|human|control|control (ssRNA)
RNA: GGGAGUUCUACAGUCCGACGAUCCUCCACUCCAUGCUUCAUGUCUAGGAUCACGAGUUGGUCAGGUAUCCGCCCUGUUCCCUUGCUCUCAAAACACACUUCAAACAUGUCAUAAUCUUCAGUGGUAAAGGCAAAUUUCCCCUUCAACAGAGGAUUGAGCAUCA
B19: 130712922_130715554_2226_CDS_ENSG00000017260_ENST00000359644|human|control|control (ssRNA)
RNA: GGGAGUUCUACAGUCCGACGAUCCAAUGAGAUUAAAGUUAAUGCUGCUAUACUCGUGCUCAGCUGGAAUCUAACGAAAUUUUUAAUGUUAUUAUAAAUCCCUUUACCCUCUUCGAUUGCAGACAUUAUGGUUUGAAAAUCAUCCAACAGAGGAUUGAGCAUCA
B20: chr12:60073987:60073988:-_ENSMUSG00000020986_ENSMUST00000021375|perfect_dup|motif|central (ssRNA)
RNA: GGGAGUUCUACAGUCCGACGAUCCUGGGUCAGAUCCUGACGCAUGAAAUGGUGACGAUAGUAUGAACUCUCAUCAGGACGGUUGUUAAAAACUUGCAAGAAAGGAGAUCUUCUUAAAUGAAACAUAAACUGAGGAUAAAGAGACAACAGAGGAUUGAGCAUCA
B21: chr4:140556289:140556290:+_ENSMUSG00000036622_ENSMUST00000037055|mus_mus|mus_mus_mus_hu_False|8_18 (ssRNA)
RNA: GGGAGUUCUACAGUCCGACGAUCGAUGGAGCUCACCAGGCCCCCUUUUGCCGUGCAGAACCCUGUGCGGGUCACCACUGCCAGGACGUGCGGUCCCACAUAGGCCCGGGCCUGCAAAAUGAGGGUGCCACAGAAGAGUGUGUGCAACAGAGGAUUGAGCAUCA
B22: chr11:5855929:5855930:+_ENSMUSG00000002741_ENSMUST00000002818|mus_hu|FALSE|FALSE (ssRNA)
RNA: GGGAGUUCUACAGUCCGACGAUCACACAUCGUAUGCGGCUUUGAGCAGCACCACCUUGGCCUCGCCUUUGUAGAGGACGCUGAGGCUGUACAGCUUCAUGGCUCCGCGCCCUCAGGCCGCCCGCCUGCCCAGCUGCGGGACCCCAACAGAGGAUUGAGCAUCA

Target: T1, UNK ZnF1-3
Test: nsRBNS (natural sequence RNA bind-n-seq); RBNS binding buffer (assumed for nsRBNS): 25 mM Tris pH 7.5, 150 mM KCl, 3 mM MgCl2, 0.01% Triton X-100, 500 ug/ml BSA, 20 U/ml SUPERase-In, 4 C; UNK is unkempt and MSI1 is Musashi-1; names of the RNAs are library labels; protein concentration not given here; high values mean tight binding

Binder	binding signal [enrichment R]
B1	1.27
B2	1.44
B3	1.41
B4	0.71
B5	0.365
B6	1.22
B7	0.885
B8	1.73
B9	0.616
B10	0.449
B11	0.807
B12	0.977
B13	1.39
B14	2.05
B15	1.18
B16	0.668
B17	0.777
B18	0.909
B19	1.18
B20	1.44
B21	0.666
B22	1.04
